Assay results taken from PubChem BioAssay AID485344 (National Center for Advancing Translational Sciences (NCATS), 2010).
The campaign covered roughly 340,000 compounds. About 6,900 (2%) were called active. Rule as the data show it: active = inhibition above about 30%; inactive = below that, where a call was filed. The list shows a part of the results, in another mix than the full data. The source gives no active or inactive call for entries shown without one.

The molecules below were run against D(2) dopamine receptor (Homo sapiens) (UniProt P14416) (assay: HTS Assay for Allosteric Antagonists of the Human D2 Dopamine Receptor: Primary Screen for Antagonists). Details: HEK293 TREx D2 cells, calcium flux, dopamine EC80; at 10 µM; stronger effect = higher value.
Chain of UniProt P14416 (P14416 whole entry, looked up): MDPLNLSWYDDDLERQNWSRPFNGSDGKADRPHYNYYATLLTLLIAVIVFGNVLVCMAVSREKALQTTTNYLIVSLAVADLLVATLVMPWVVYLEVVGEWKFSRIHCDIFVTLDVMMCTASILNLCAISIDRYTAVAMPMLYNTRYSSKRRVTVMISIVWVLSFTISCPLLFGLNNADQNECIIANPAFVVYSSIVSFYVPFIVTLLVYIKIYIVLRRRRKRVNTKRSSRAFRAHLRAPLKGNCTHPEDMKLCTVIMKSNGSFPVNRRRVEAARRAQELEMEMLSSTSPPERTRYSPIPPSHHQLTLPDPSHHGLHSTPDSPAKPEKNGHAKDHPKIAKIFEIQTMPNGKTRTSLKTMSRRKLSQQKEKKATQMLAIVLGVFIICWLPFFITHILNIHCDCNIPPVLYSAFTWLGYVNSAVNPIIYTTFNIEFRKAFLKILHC
In short: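 In this primary screen, negative modulation is detected by tracking calcium flux after an EC80 dopamine challenge in inducible HEK293 T-REx D2 cells preexposed to test compound for 180 s.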
Also: 0% is about no effect.

Row | SMILES | inhibition
1 | O=S(=O)(NCc1ccc(F)cc1)c1ccc2[nH]c3c(c2c1)CCCCC3 | 1.25%
2 | CCOC(=O)c1nc(Nc2ccc(OC)cc2)c2ccccc2n1 | 4.44%
3 | CC(C)CCNC(=O)c1ccc(Cn2c(=O)c3cccn3c3cccnc32)cc1 | -4.62%
4 | Cc1ccccc1Nc1c(-c2cccc(O)c2)nc2ccc(Br)cn12 | 15.7%
5 | COc1ccc(N2CCN(C(=O)Cn3cnc4sc(C)c(S(=O)(=O)N5CCC(C)CC5)c4c3=O)CC2)cc1 | 4.86%
6 | CCOC(=O)c1ccc(N2C(=O)c3n[nH]c(C)c3C2c2ccc(O)c(OC)c2)cc1 (configuration not stated) | 18.4%
7 | Cc1cc(=O)oc2c3c(ccc12)OCN(Cc1ccccc1Cl)C3 | 1.66%
8 | Cc1ccc(-n2ncc(C(=O)N3CCN(c4ccccn4)CC3)c2C2CCN(C(=O)OC(C)(C)C)CC2)cc1C | 1.27%
9 | COc1ccc(Cc2nc(-c3ccccn3)no2)cc1 | active: 34.2%
10 | CCOC(=O)c1ccccc1NC(=O)Cc1c(C(=O)O)c(C)cn1C | -5.94%
11 | COc1ccc(C2=CC(c3ccc(N(C)C)cc3)n3nnnc3N2)cc1 (configuration not stated) | -18.8%
12 | Clc1ccc(OCCCNCc2ccccc2)c2ccccc12 | active: 41.5%
13 | Cc1c(CNC2CCCCCC2)c(C(=O)O)c(C)n1Cc1c(F)cccc1Cl | -11.4%
14 | COc1ccc(C(=O)Nc2onc3c2CCCC3)cc1 | 3.51%
15 | CCOc1ccc(N2C(=O)CC(NC3CCCCNC3=O)C2=O)cc1 (configuration not stated) | active: 45.3%
16 | COc1ccc(NC(=O)Cn2cnc3c(nc4n3CCCCC4)c2=O)c(OC)c1 | 4.48%
17 | COCCCn1c(=N)c(C(=O)NC2CCCCC2)cc2c(=O)n3ccccc3nc21 | -1.55%
18 | COc1cc(NC(=O)C(NC(=O)C2CCC(C)CC2)C(C)C)cc(OC)c1OC (configuration not stated) | -2.51%
19 | C(=C\c1ccccc1)/C=N/N1CCN(Cc2ccccc2)CC1 | active: 40%
20 | COc1ccc(Cl)cc1NS(=O)(=O)c1c(C)nc2scc(C)n2c1=O | -7.54%
21 | COCCn1c(CNC(=O)c2cc([N+](=O)[O-])ccc2Cl)nc2cccnc21 | 2.62%

Row | SMILES | inhibition
22 | O=c1n(Cc2ccc(F)cc2Cl)c2ccccc2c2nc(-c3ccccc3)nn12 | -7.84%
23 | CCCCN(CC)CCCNC(=O)c1cn(CC(C)C)c(=O)c2c1c1ccccc1n2C | 10.7%
24 | COc1ccc(-c2cn3nc(N4CCCC(C(=O)Nc5ccc(Cl)cc5C)C4)sc3n2)cc1 (configuration not stated) | -16.8%
25 | CC1Cc2ccccc2N1S(=O)(=O)c1nnc(NC(=O)c2ccccc2Br)s1 (configuration not stated) | -21.9%
26 | Cc1[nH]c2ccc(F)cc2c1CCNC(=O)c1cc2cc(Cl)ccc2oc1=O | -13.4%
27 | COc1ccccc1N1CCN(S(=O)(=O)c2ccc3c(c2)CC(C)N3C(C)=O)CC1 (configuration not stated) | active: 32.8%
28 | COc1ccccc1CNC(=O)Cn1c(=O)ccc2cc(S(=O)(=O)N3CCC(C)CC3)ccc21 | 5.71%
29 | COC(=O)c1c(C)oc2c1cc(NS(=O)(=O)c1c(C)cc(C)cc1C)c1ccccc12 | 6.5%
30 | O=S(=O)(c1ccc(Cl)cc1)c1nc(-c2ccccc2Br)oc1N1CCOCC1 | 14.6%
31 | CCC(C)(C)n1nnnc1C(c1ccc(O)c(OC)c1)N1CCc2ccccc2C1 (configuration not stated) | active: 35.1%
32 | Cc1ccc(NC(=O)CCc2c(C)nn(-c3ccc(N4CCCCC4)nn3)c2C)cc1F | 4.38%
33 | COC(=O)c1cc2sc(C)cc2n1Cc1ccc(F)cc1Cl | -13.1%
34 | O=C(Nc1cccc(-c2nnc(-c3ccccc3)o2)c1)C1CCCO1 (configuration not stated) | active: 63%
35 | CCOc1ccc2nc(N(Cc3cccnc3)C(=O)c3ccc4c(c3)OCCO4)sc2c1 | -9.77%
36 | COc1cccc(CSc2nc3cc(OC)c(OC)cc3c3nc(CCn4nc(C)cc4C)nn23)c1 | -5.02%
37 | CN1CCC(=C2c3ccccc3C=Cc3ccccc32)CC1 | active: 77.1%
38 | CC1Cc2cc(S(=O)(=O)NCc3ccc(F)cc3)ccc2N1C(=O)C1CCC1 (configuration not stated) | -4.53%
39 | O=C(NCc1cccs1)c1ccc(CSc2nc3ccncc3n2Cc2cccc(F)c2)cc1 | 2.66%
40 | Cc1ccc(NC(=O)C2CCN(c3nc4ccccc4[nH]3)CC2)cc1Cl | -22.4%
41 | COc1ccc(C)cc1NC(=O)CN1C(=O)CCc2cc(S(=O)(=O)N3CCOCC3)ccc21 | 11.5%
42 | CC(=O)c1ccc(NC(=O)CSc2nc(-c3ccccc3F)nc3c2c(=O)n(C)c(=O)n3C)cc1 | 6.53%

Row | SMILES | inhibition
43 | Cc1ccc(C(c2sc3nc(-c4ccco4)nn3c2O)N2CCCCC2)cc1 (configuration not stated) | -5.78%
44 | Cc1ccc(N(C)S(=O)(=O)c2ccc3[nH]cc(C(=O)O)c(=O)c3c2)cc1C | 9.18%
45 | C=Cc1ccc(Cn2c(=O)n(-c3ccccc3C)c(=O)c3c4c(sc32)CN(C(C)=O)CC4)cc1 | 6.1%
46 | CCc1nn(CC(=O)Nc2c(C)cc(C)cc2C)c(=O)c2cc3sccc3n12 | 9.21%
47 | OC1CCCN(c2c3c(nc4cc(-c5cccc(F)c5)nn24)CCCC3)C1 (configuration not stated) | active: 46.6%
48 | COc1ccc(-n2c(-c3ccc(Br)cc3)n[nH]c2=S)cc1 | active: 31%
49 | Cc1ccc(C(=O)Nc2ccc3c(c2)N(C)C(=O)c2ccccc2S3)cc1F | 6.68%
50 | CCOC(=O)c1c(C)c(C(=O)NCCc2ccc(OC)cc2)c(C)n1CC | -4.06%
51 | COc1cccc(-c2cc(C(=O)NCCc3ccc(C)cc3)[nH]n2)c1 | -5.74%
52 | CC(=O)c1c(C)n(-c2cccc(C)c2)c2ccc(OC(=O)COc3ccccc3)cc12 | 23.3%
53 | Cc1ccc(NS(=O)(=O)c2c(C(=O)N3CCCCCC3)c(C)n(C)c2C)cc1F | 7.18%
54 | O=C(Nc1ccc(Br)cc1)c1ccc(Br)c(S(=O)(=O)NCc2ccccc2)c1 | 13.1%
55 | CCOc1ccc(CNC(=O)Cn2nc(C)c3sc4ccccc4c3c2=O)cc1 | 14.7%
56 | COC(=O)c1[nH]c2cc(OC)ccc2c1NC(=O)CCN1CCN(c2ccccc2)CC1 | active: 63.2%
57 | O=C(CSc1nc2c([nH]c3ccccc32)c(=O)n1-c1ccc(F)cc1)N1CCCCCC1 | -8.52%
58 | COc1ccccc1CNC(=O)Nc1ccc2c(c1)N(C)C(=O)c1ccccc1S2 | 7.8%
59 | COc1ccc(Br)cc1CNC(=O)CCC(=O)N1CCSc2ccccc21 | -14.9%
60 | Clc1cccc(-c2noc3ncnc(NC4CCCCC4)c23)c1 | 7.87%
61 | O=C(Cn1cc(SCc2cccc(C(F)(F)F)c2)c2ccccc21)N1CCCCCC1 | 18.4%
62 | Cc1[nH]c(=S)[nH]c(=O)c1Cc1ccc(OCC(C)C)cc1 | active: 30.7%
